# Measurements reported in ChEMBL document CHEMBL4888484, “Replenishing the malaria drug discovery pipeline: Screening and hit evaluation of the MMV Hit Generation Library 1 (HGL1) against asexual blood stage Plasmodium falciparum ,using a nano luciferase reporter read-out” (2022).
# Hit rate of the full screen: of about 150,000 compounds, about 540 (0.36%) showed an effect of 50% or more. This is one part of the list.
# System: Plasmodium falciparum
# Experiment: Primary screen in NF54 nanoGlo assay, in single point, at 2uM, 72h; a lower Z score goes with more inhibition
# Type: functional, Erythrocyte
# Conditions: timepoint 72 hour
SMILES,% Inhibition,Z score
c1ccc2c(N[C@H]3CCOC[C@@H]3OCC3CC3)nccc2c1,-10%,1.1
O=c1c2ccccc2nnn1Cc1nnc(-c2ccccc2Br)o1,-5%,0.59
CCN(C[C@H]1CCOC1)C(=O)c1cc(-c2ccco2)[nH]n1,-13%,1.99
CCn1nc(C)c(CNS(=O)(=O)CC[C@H]2CCCO2)c1C,-1%,0.18
COc1ccc([C@@H]2CCCN2C(=O)CCc2c(C)noc2C)cc1OC,-6%,1.02
CC1CCN([C@@H]2[C@H](O)[C@H](CO)O[C@@H]2CNS(=O)(=O)c2cccs2)CC1,15%,-1.77
O=C(Nc1cnccc1O)[C@@H]1CCN(c2cc(Cl)ccc2Cl)C1=O,-5%,0.84
Cc1nc2c(n1CCO)CC[C@H](NC(=O)c1ccn3ccccc13)C2,-7%,1.26
CN1CCc2[nH]nc(C(=O)N(C)Cc3nc4cc(Cl)ccc4[nH]3)c2C1,5%,-0.86
CCc1noc(NCc2cc(F)ccc2F)c1C,-21%,2.48
CN(C)[C@@]1(c2nnnn2C2CCCC2)CCN(C(=O)c2ccccn2)C1,-11%,1.31
c1ccc(C2=C(CN3CCCCC3)[C@@H](c3ccccc3)c3ccccc3O2)cc1,-8%,0.9
Cc1cccc(C)c1NCC(=O)NC[C@H](O)c1ccsc1,-1%,0.05
O=C(C1CCC1)N1CCOC[C@H](Oc2cnccn2)C1,35%,-3.99
Cc1c(C(=O)Oc2ccccc2C(C)C)cnn1-c1ccncc1,8%,-0.79
CC1CCCCCN1C(=O)C1CC2C=CC1C2 (stereo not drawn),-17%,1.52
CCOC(=O)Cc1csc(NC(=O)NC[C@@H](CO)Cc2ccc(OC)c(O)c2)n1,5%,-0.92
C[C@H]1c2ccsc2CCN1Cc1nnc(C(C)(C)C)o1,-5%,0.58
COc1ccc2cc(-c3n[nH]cc3CN(C)Cc3nonc3C)ccc2c1,-12%,1.58
O=C(NCCn1nc(C2CC2)ccc1=O)c1ccno1,14%,-1.8
CCCN(CCC)CC(=O)N[C@@H](C)c1ccco1,-13%,1.37

SMILES,% Inhibition,Z score
Cc1c(C(=O)N2CC(n3cc(CO)nn3)C2)cc(-c2ccccc2)n1C,-4%,0.73
CN(C)C(=O)N1CCC(Nc2ccc(C3CC3)c(F)c2)CC1,-5%,0.69
Cc1cccc(OC2(C(=O)O)CCN(C(=O)c3cscn3)CC2)c1,-6%,0.51
O=C(Nc1nnc(-c2cccs2)o1)c1ccc2c(c1)OCO2,-16%,1.81
O=C(Nc1ccc2c(c1)OCO2)c1nn(Cc2ccccc2)c(=O)c2ccccc12,-12%,2.15
CCN1C[C@H](CN(C)C(=O)c2cc(S(=O)(=O)N(C)C)ccc2N2CCCC2)Oc2ccccc21,-11%,1.53
CCCCN(Cc1cccnc1)Cc1cccnc1N,-5%,0.59
O=C(Cc1nc(-c2cccc(F)c2)no1)Nc1ccc(F)cc1,-12%,2.1
CCCc1cc(C(=O)N2C[C@H](N)C[C@H]2C(=O)NC(C)C)cs1,-6%,0.55
Cc1ccc([C@H](CNC(=O)COc2ccc(Cl)cc2)N2CCN(C)CC2)o1,1%,-0.12
COCC1(NC(=O)[C@H](C)n2ccnc2)CCCC1,-13%,2.65
Cc1cnc(C)c(N2CCC(n3nccc3NC(=O)c3cccnc3)CC2)n1,-8%,0.84
Cc1ccc(C(=O)N(C(=O)CCC(=O)O)c2c(C)n(C)n(-c3ccccc3)c2=O)cc1,5%,-0.7
Cc1cn2nc(C(=O)N3CCCCC3)cc2c(N(C)Cc2ccccc2)n1,-11%,1.39
CCCn1c(C)cnc1C1CN(C(=O)c2cccs2)C1,-11%,1.39
O=C(CCc1ccc(Cl)c(F)c1)N1C[C@@H]2CS(=O)(=O)C[C@@H]2C1,-9%,1.12
O=C(Cn1nc2n(c1=O)C(=O)N(c1ccccc1)C2)NCc1ccccc1F,-9%,1.22
COC[C@H](C)NC(=O)Nc1ccc(Cl)cc1Cl,2%,-0.18
Cc1cccnc1CN1CCN(C(=O)CC2CC2)C[C@@H](O)C1,-3%,0.29
CCOC(=O)[C@@]1(C(C)C)CCN(C(=O)c2ncoc2C)C1,16%,-2.17
O=C(NCC[C@]1(O)CCCOC1)c1cnc2n1CCCCC2,-6%,0.97

SMILES,% Inhibition,Z score
CCn1cc(OCc2nc(-c3ccoc3)no2)cn1,-8%,1.16
Cn1ccnc(N2CCN(c3cc4c(nn3)CCC4)CC2)c1=O,19%,-2.54
CC(C)(O)C(C)(C)CNC(=O)c1cncc(N2CCOCC2)c1,-20%,2.48
COc1cccc(-c2nc3c(s2)CN(S(=O)(=O)c2cccc(Cl)c2)CC3)c1,0%,-0.01
O=C(Nc1ccccc1OCc1cccc(Cl)c1)[C@H]1CC12CCNCC2,-5%,0.84
COCCN(CC(N)=O)CC(=O)Nc1ccc(C(C)(C)C)cc1,-4%,0.46
COc1ccc(NCc2cn(-c3ccccc3)nc2-c2ccc(C)o2)cc1,-16%,1.68
CC(C)=CCN1CCC(NC(=O)C(=O)Nc2cccc(C)c2)CC1,-11%,1.42
CC(=O)c1cnc(NCCc2cccnc2)nc1C,-14%,1.82
Cc1ccc(NC(=O)NC2CCCC2)cc1NC(=O)NC1CCCC1,-3%,0.42
CN1CCCC[C@@H]1CCNC(=O)c1ccc(N2CCCOCC2)nc1,-23%,2.51
O=C(CN1CCN(c2ccccc2F)CC1)NC(C1CC1)C1CC1,-32%,3.8
O=C(Cn1cc(OCc2ccccc2)c(=O)cc1CO)NCc1ccc2c(c1)OCO2,-4%,0.56
c1ccc(C2CN(Cc3cnc(-c4cccc5ccccc45)nc3)C2)nc1,-15%,1.68
CCS(=O)(=O)c1ccccc1N1CCO[C@H](c2cccs2)C1,-1%,0.19
COc1cccc(C2CN(C(=O)c3ccccc3)CC2C(=O)NCC2CC2)c1OC (stereo not drawn),31%,-3.12
Cc1csc([C@@H](C)CNC(=O)NCc2ccc(C)s2)n1,-1%,0.12
CC(C)c1ccc(C(=O)N2CCC3(CC2)C(=O)NCCN3C)c(=O)n1C,-1%,0.15
CCNC(=O)Nc1ccc(N(C)C)c(CN(C(=O)C(CC)CC)[C@@H](C)C(C)C)c1,-9%,1.27
COCCCN(Cc1c(C)nn(-c2cccc(F)c2)c1N1CCN(C)CC1)S(=O)(=O)c1ccc2ccccc2c1,35%,-0.78
Cc1c(NC(=O)N2CCS(=O)(=O)CC2)cccc1N1CCCC1,9%,-1.19

SMILES,% Inhibition,Z score
CN(CCC1(O)CCCC1)c1ncc(F)cn1,-12%,2.35
CCOC1CC(C(=O)Nc2c(C)cnn2[C@H]2CCCc3ccccc32)C1 (stereo partly drawn),-4%,0.76
Cc1cc(C)n2cc(COC(=O)Cn3c(C)cc4ccccc43)nc2n1,39%,-5.22
O=C1CCCCC1C1CCCN1S(=O)(=O)C1CC1 (stereo not drawn),-12%,1.24
CCC(=O)N1CCC2(CC1)Nc1ccc(C)c(C)c1-n1cccc12,8%,-1.5
CCC1COCCN1C(=O)C1C2CCCC21 (stereo not drawn),-3%,0.25
COc1cccc(CNC(=O)Nc2cc(C3CC3)nn2[C@H]2CCS(=O)(=O)C2)c1,-12%,1.87
CC(=O)N1c2ccccc2N(Cc2ccc(Cl)c(Cl)c2)C(=O)C1(C)C,1%,-0.23
OCC1(c2nc(C3CCOCC3)nn2-c2cccc3c2CCC3)CC1,0%,0.02
O=C(COc1ccc2c(c1)OCO2)Nc1ccc2c(c1)C(=O)Nc1cccnc1O2,32%,-3.82
O=S(=O)(c1ccccc1)N1CCC2(CC1)Nc1cccnc1N=C2NCc1ccccc1,27%,-3.02
O=C1C[C@H](c2cccc(O)c2)c2cnn(Cc3ccc(Cl)cc3)c2N1,4%,-0.47
CC(C)(C#N)c1ccc(-c2ccc3c(c2)OC[C@@H](N2CCCC2)[C@@H]3O)cc1,-10%,1.93
CC(C)C(=O)N1CCCN(S(=O)(=O)CCc2ccccc2)CC1,-10%,1.86
Cc1noc(CCCC(=O)N2CCN(c3cccc(C)c3C)CC2)n1,2%,-0.31
Cn1nccc1CCC(=O)NC(c1ccc(F)cc1F)[C@H]1C[C@@H](O)C1 (stereo partly drawn),1%,-0.09
CCn1nc(C)c(CN2C[C@@H](CO)[C@H](NC(=O)C3CCC3)C2)c1C,-14%,1.98
CCCNc1ccccc1C(=O)N[C@H]1CCNC1=O,6%,-0.77
Cc1c(C(=O)OCC2(C#N)CCOCC2)cnn1C,-2%,0.21
O=C(NS(=O)(=O)c1c(Cl)ccc(F)c1F)[C@H]1CC[C@H](c2ccccc2)C1,-14%,1.86
CC(C)(C)C(=O)NC[C@H](O)c1cccs1,-5%,0.92
